Results on 91 compounds are retold here after PubChem BioAssay AID463173 (ICCB-Longwood Screening Facility, Harvard Medical School, 2010).

SMILES strings stand for the structures. Screen size: about 52,000 compounds; about 1,700 (3.3%) were called active. No stated cut-off is given here; in the data, active means survival mostly below about 52% (no sharp cut-off); inactive means mostly above about 56%. The list shows a part of the results.

For this assay, the system named is Wild type. The assay can be described thus: growth inhibition of S. aureus wild type versus tarO mutant, primary screen, teichoic acid synthesis inhibitors, RN4220, OD600 (AID 463173). The conditions noted are these: S. aureus RN4220 wild type/DeltatarO growth, OD600, 18 h, stronger effect = lower value, screened at 18.75 µg/mL (by protocol).
For the compound `COc1ccc(NCc2nnc(SCC(N)=O)n2-c2ccc(C)cc2)cc1`, the survival is inactive: 106%.

For `CCOC(=O)c1nc(Nc2ccccc2OC)c2ccccc2n1`, the survival is inactive: 70%.

As for `CCCCN(CC)C(=O)c1cc2c(=O)n3ccccc3nc2n1C`, the survival was inactive: 81%.

With `CCCOc1ccc(-c2nc(N3CCCCC3)c3ccccc3n2)cc1`, the survival is active: 0%.

As for `Cc1nn(C)c2c1c(C(F)(F)F)cc(=O)n2CC(=O)N1CCCCC1C` (stereo unspecified), the survival is inactive: 65%.

As for `O=C(NCC(c1ccc2c(c1)OCO2)N1CCOCC1)C(=O)Nc1ccc(F)cc1F` (stereo unspecified), the survival is inactive: 129%.

Consider `O=S(=O)(NCCc1ccccc1)c1cccs1`, for which the survival was inactive: 92%.

As to `COc1ccc(N(Cc2cccs2)C(=O)c2ccc(C(C)(C)C)cc2)cc1`, the survival is inactive: 80%.

Turning to `COc1cc2[nH]c(=O)n(Cc3ccc(C(=O)N4CCN(c5cc(Cl)ccc5C)CC4)cc3)c(=O)c2cc1OC`, the survival was inactive: 77%.

Regarding `O=C(CN1C(=O)CC(c2ccco2)Sc2ccccc21)Nc1ccc(C(F)(F)F)cc1` (stereo unspecified), the survival was inactive: 96%.

Regarding `C1Cc2nnc3c4c(nnc(c24)C1)CCC3`, the survival is inactive: 93%.

`COc1nc2nonc2nc1OC`: the survival was inactive: 112%.

Take `O=C(Cn1cnc2c(oc3ccccc32)c1=O)Nc1ccc(OC(F)(F)F)cc1`: the survival is inactive: 89%.

Consider `COc1ccccc1CNC(=O)Cc1csc2nc(-c3ccccc3)cn12`, for which the survival is inactive: 70%.

With `CC1(CCC(=O)O)NNC(=S)NN1`, the survival is inactive: 101%.

For `Cc1ccc(CNC(=O)c2ccc3c(c2)N(Cc2ccccc2)C(=O)c2ccccc2S3(=O)=O)cc1`, the survival is inactive: 103%.

As to `Cc1cccc(CCNC(=O)c2cnc3c(C)cccn3c2=O)c1`, the survival was inactive: 70%.

For `CC(C)(C)c1ccc(S(=O)(=O)c2cn(CC(=O)Nc3ccccc3)c3ccccc3c2=O)cc1`, the survival is inactive: 75%.

In the case of `CCOC(=O)c1ccc(NC(=O)c2c(C)nn(-c3ccc(F)cc3)c2-n2cccc2)cc1`, the survival is inactive: 77%.

Consider `Cc1ccc2c(c1)N(C(=O)C1CCN(S(=O)(=O)c3c(C)noc3/C=C/c3ccccc3F)CC1)CCO2`, for which the survival is inactive: 68%.

Take `CCn1c(SCc2ccc(F)cc2Cl)nnc1-c1nonc1NC(C)=O`: the survival is inactive: 104%.

For the compound `COC(=O)C1CCN(CC(=O)Nc2cc(C)c3c(=O)oc4ccccc4c3n2)CC1`, the survival is inactive: 82%.

For `COc1ccc(N(C(=O)c2cccc(C)c2)S(=O)(=O)c2ccc(C)cc2)cc1`, the survival is inactive: 73%.

In the case of `O=C(Nc1nnc(S(=O)(=O)N2CCCc3ccccc32)s1)c1cccc(F)c1`, the survival is inactive: 13%.

Take `O=C(CCC1N=C2c3ccccc3N=C(SCc3ccccc3F)N2C1=O)NCCc1ccccc1` (stereo unspecified): the survival is inactive: 82%.

As to `Cc1cc(C)c(NC(=O)Cn2ccn(-c3cccc(Cl)c3)c(=O)c2=O)c(C)c1`, the survival was inactive: 83%.

On to `Fc1ccc(-n2ncc3c(N4CCC(Cc5ccccc5)CC4)ncnc32)cc1`, for which the survival was inactive: 57%.

In the case of `CCOc1ccccc1CNC(=O)c1ccc(NC(=O)N2CCSc3ncccc32)cc1`, the survival was inactive: 63%.

As for `COc1ccc(CNC(=O)CCNS(=O)(=O)c2cccc3nsnc23)cc1`, the survival is inactive: 57%.

With `COc1ccc2c(Sc3ccccc3)c(C(=O)NCCCN3CCCCC3)[nH]c2c1`, the survival is inactive: 73%.

On to `CN(C)c1ncnc(Cl)c1N`, for which the survival was inactive: 101%.

`COc1ccc(/C=C/C(=O)Nc2nc3n(n2)C(c2ccccc2)C=C(c2ccc(Cl)cc2)N3)cc1` (stereo unspecified): the survival is inactive: 82%.

Regarding `O=C(CSC1=NC(=O)C(c2ccccc2)C(=O)N1)Nc1nncs1` (stereo unspecified), the survival is inactive: 107%.

Consider `COc1ccc(OC)c(NC(=O)c2ccccc2)c1`, for which the survival is inactive: 105%.

For `COc1ccc(OC)c(CNC(=O)Cn2nc(C)c3nn(-c4ccc(Cl)cc4)c(C)c3c2=O)c1`, the survival was inactive: 88%.

Consider `COc1ccc2oc(=O)c(-c3cn4c(n3)sc3cc(OC)ccc34)cc2c1`, for which the survival was inactive: 53%.

As for `COc1cccc(-c2nnc(-c3ccc(C)o3)o2)c1`, the survival is inactive: 114%.

On to `CCc1ccccc1NC(=O)Nc1nnc(N(C)Cc2ccccc2)s1`, for which the survival was inactive: 82%.

Regarding `CCOc1ccc(C(=O)N2CCC(C)CC2)cc1`, the survival is inactive: 98%.

Turning to `COc1ccc(NC(=O)c2cc(S(=O)(=O)N3CCCCCC3)cn2C)cc1Cl`, the survival was inactive: 68%.

In the case of `Clc1ccc(N2CCN(c3ncnc4c3cnn4-c3ccccc3)CC2)cc1Cl`, the survival was inactive: 76%.

`Cc1ccc(NCc2nnc(SCC(=O)N(Cc3ccccc3)C(C)(C)C)o2)c(C)c1`: the survival is inactive: 123%.

On to `Cn1c(=O)c2c(nc(NN=C3CCCCC3)n2C)n(C)c1=O`, for which the survival was inactive: 117%.

As to `COC(=O)c1ccc(NC(=O)n2ncc3c(C)cccc32)cc1`, the survival is inactive: 85%.

Take `CCOC(=O)c1[nH]c2c(c1Cc1ccccc1C)C(=O)CC(c1ccccc1)C2` (stereo unspecified): the survival is inactive: 95%.

Take `CC1=C(c2ccc(C(C)C)cc2)S(=O)(=O)N=C1N1CCC(C(=O)Nc2ccc(C)cc2)CC1`: the survival was inactive: 60%.

For the compound `CCOc1ccc(-c2nnc(SCC(=O)Nc3ccc(C)cc3C)o2)cc1`, the survival is inactive: 87%.

Turning to `COc1ccc(-c2cn3c(n2)sc2cc(C(=O)Nc4ccc(C)c(Cl)c4)ccc23)cc1`, the survival was inactive: 82%.

For the compound `CCc1ccc(NC(=O)c2cnn(-c3c(C)cccc3C)c2C2CCN(C(=O)OC(C)(C)C)CC2)cc1`, the survival is inactive: 72%.

For `CC1(C)N=C(SCc2ccc(Cl)cc2)c2ccccc2N1`, the survival was inactive: 143%.

Turning to `O=C(NCCc1ccccc1)C(=O)NCC(c1cccs1)S(=O)(=O)c1cccs1` (stereo unspecified), the survival was inactive: 125%.

`Cc1cc(=O)[nH]c2nnc(SCc3ccccc3F)n12`: the survival is inactive: 70%.

Turning to `Cc1c(C(=O)N2CCCCCC2)c(S(=O)(=O)Nc2cccc(C#N)c2)c(C)n1C`, the survival was inactive: 77%.

In the case of `CCOC(=O)c1c(C)[nH]c(C)c1S(=O)(=O)N1CCC(C(=O)Nc2ccccc2CC)CC1`, the survival is inactive: 57%.

Take `Cn1c(=O)cc(SCC(=O)NCc2ccc(F)cc2)c2cc(Cl)ccc21`: the survival was inactive: 102%.

Turning to `Cc1ccc(S(=O)(=O)N2CCN(Cc3cc(=O)n4nc(-c5ccccc5Cl)sc4n3)CC2)cc1`, the survival is inactive: 64%.

Turning to `COc1ccc(NC(=O)N2CCCn3nc(C)cc32)cc1OC`, the survival is inactive: 78%.

With `Cn1c(=O)c(=O)n(C)c2cc(NS(=O)(=O)c3ccc(Br)cc3)c(Cl)cc21`, the survival is inactive: 65%.

For `CCc1ccc(-n2nc(CO)c(C(=O)NCc3ccccc3Cl)n2)cc1`, the survival is inactive: 84%.

For `N#Cc1c(Nc2ccccc2)sc(C(=O)c2cccs2)c1N`, the survival is inactive: 118%.

Take `CCCCNC(=O)CSc1nc2cc3c(cc2c(=O)n1Cc1ccc(C(=O)NCCc2ccc(OC)c(OC)c2)cc1)OCO3`: the survival is inactive: 87%.

Take `CCn1c(C(=O)NCc2ccccc2Cl)cc2sc(Cl)cc21`: the survival is inactive: 55%.

On to `COc1cc(S(=O)(=O)N(CC(=O)Nc2c(C)cccc2C)CC2CCCO2)ccc1-n1cnnn1` (stereo unspecified), for which the survival is inactive: 104%.

Turning to `COc1ccc(Cc2nc3ccccc3n2Cc2ccccc2C)cc1`, the survival was active: 1%.

Regarding `Cc1cc2[nH]c(=O)c(=O)[nH]c2cc1S(=O)(=O)N1CCN(c2ccccc2)CC1`, the survival is inactive: 75%.

In the case of `O=C(NCc1cccc(Cl)c1)c1ccc(NC(=O)N2CCSc3ccccc32)cc1`, the survival is inactive: 73%.

As for `COc1ccc(-c2cc3ccc(O)c(CN4CCCC(C)C4)c3oc2=O)cc1OC` (stereo unspecified), the survival is inactive: 83%.

Consider `CC(Oc1ccccc1)C(=O)Nc1ccc(C(=O)OCc2cc(=O)n3nc(C4CC4)sc3n2)cc1` (stereo unspecified), for which the survival was inactive: 57%.

With `O=C(CCC(=O)N1Cc2ccccc2Oc2ncccc21)NCc1cccc(Cl)c1`, the survival is inactive: 59%.

For `Cc1nn(C)c(C)c1S(=O)(=O)N(CC(=O)Nc1ccc(F)cc1F)c1ccc(C(C)C)cc1`, the survival is inactive: 115%.

On to `COc1ccc(NC(=O)Cn2c(=O)n(-c3ccc(C)cc3)c(=O)c3c2c2cc(C)ccc2n3C)cc1`, for which the survival is inactive: 140%.

Consider `Cc1ccc(Cc2c(C)nc3nc(SCC(=O)NCCC(C)C)nn3c2C)cc1`, for which the survival was inactive: 64%.

As for `Cc1ccc(CN2C(=O)SC(Nc3ccc(Cl)cc3)C2=O)cc1` (stereo unspecified), the survival is inactive: 62%.

As to `CC1CCN(c2nc3ccc(C(=O)NC(C)C)cc3s2)CC1`, the survival is inactive: 75%.

For `O=C(Nc1onc2c1CCCC2)c1ccccc1`, the survival was inactive: 108%.

With `COc1cccc(CNC(=O)C(=O)NCC(c2ccco2)S(=O)(=O)c2ccccc2)c1` (stereo unspecified), the survival was inactive: 72%.

Take `c1ccc(OCCCn2nnc(-c3ccncc3)n2)cc1`: the survival is inactive: 111%.

For the compound `O=C(CN1C(=O)CCn2nc(-c3ccccc3)cc21)NCc1ccccc1`, the survival is inactive: 124%.

Turning to `COc1ccccc1CNC(=O)c1cnc2sc(N3CCCCC3)nn2c1=O`, the survival is inactive: 65%.

`COc1cccc(C2C(C(=O)Nc3ccccc3OC)=C(C)Nc3nc(-c4ccco4)nn32)c1` (stereo unspecified): the survival was inactive: 82%.

Turning to `CCCOc1cccc(C2c3c(oc4ccc(F)cc4c3=O)C(=O)N2CCc2ccc(OC)cc2)c1` (stereo unspecified), the survival was inactive: 74%.

In the case of `COc1ccc(-n2nc(C(=O)NCCc3ccc(OC)c(OC)c3)c3c4ccccc4n(C)c3c2=O)cc1`, the survival was inactive: 78%.

In the case of `CCC(Sc1nnc2c3ccccc3n(CC)c2n1)C(=O)Nc1ccc(NC(C)=O)cc1` (stereo unspecified), the survival is inactive: 106%.

With `Cc1ccccc1-c1nc(CS(=O)(=O)CC(=O)NCCCc2ccccc2)c(C)o1`, the survival is inactive: 138%.

For the compound `COc1ccc(C(=O)NCC(c2ccc(Cl)cc2)N2CCCCC2)cc1` (stereo unspecified), the survival was inactive: 84%.

Consider `CCC(C(=O)Nc1cc(C(F)(F)F)ccc1Cl)n1nc(C)c2sc3ccccc3c2c1=O` (stereo unspecified), for which the survival is inactive: 90%.

As for `COc1ccccc1CNC(=O)Cn1nc(C)n2cccc2c1=O`, the survival was inactive: 87%.

For `O=C(Cn1nc(Cc2cccnc2)c2ccccc2c1=O)Nc1ccc(F)c(Cl)c1`, the survival is inactive: 67%.

As for `COc1ccc(-c2noc(CSc3nc4ccc(C)cc4[nH]3)n2)cc1`, the survival is inactive: 47%.

In the case of `COc1cccc(CNC(=O)c2sc3ncccc3c2-n2c(C)ccc2C)c1OC`, the survival was inactive: 94%.

`O=C(Cn1cnc2onc(-c3ccc(F)cc3)c2c1=O)N1CCN(c2ccc(F)cc2)CC1`: the survival was inactive: 59%.
